This is one part of the list.
Legend:
Assay in all cases: glycan array binding signal (z-score within array); higher = stronger binding
Settings in all cases: glycan notation: IUPAC condensed, linker removed; mutation: R186I
Fuc(a1-2)[Gal(a1-3)]Gal = biological target: Fuc(a1-2)[Gal(a1-3)]Gal
Outline: (§1)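 Glycan array data were curated from 3228 arrays in the Consortium for Functional Glycomics database and kept only where the protein sequence was available. Glycan names were converted to IUPAC-condensed notation, and columns mapping to the same glycan were averaged. The binding signal is a within-array Z-score, averaged across arrays of the same protein sequence at different concentrations or buffers and across linkers. Negative Z-scores can be read as non-binding.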

[1] = biological target: Fuc(a1-2)[Gal(a1-3)]Gal(b1-3)GlcNAc
Outline: as §1

[2] = biological target: Fuc(a1-2)[Gal(a1-3)]Gal(b1-3)GlcNAc(b1-2)Man(a1-3)[Fuc(a1-2)[Gal(a1-3)]Gal(b1-3)GlcNAc(b1-2)Man(a1-6)]Man(b1-4)GlcNAc(b1-4)GlcNAc
Outline: as §1

[3] = biological target: Fuc(a1-2)[Gal(a1-3)]Gal(b1-4)Glc
Outline: as §1

[4] = biological target: Fuc(a1-2)[Gal(a1-3)]Gal(b1-4)GlcNAc
Outline: as §1

[5] = biological target: Fuc(a1-2)[Gal(a1-3)]Gal(b1-4)GlcNAc(b1-2)Man(a1-3)[Fuc(a1-2)[Gal(a1-3)]Gal(b1-4)GlcNAc(b1-2)Man(a1-6)]Man(b1-4)GlcNAc(b1-4)GlcNAc
Outline: as §1

[6] = biological target: Fuc(a1-2)[Gal(a1-3)]Gal(b1-4)[Fuc(a1-3)]GlcNAc
Outline: as §1

[7] = biological target: Fuc(a1-2)[Gal(a1-4)]Gal(b1-4)GlcNAc
Outline: as §1

[8] = biological target: Fuc(a1-2)[GalNAc(a1-3)]Gal
Outline: as §1

[9] = biological target: Fuc(a1-2)[GalNAc(a1-3)]Gal(b1-3)GalNAc(a1-3)[Fuc(a1-2)]Gal(b1-4)GlcNAc
Outline: as §1

[10] = biological target: Fuc(a1-2)[GalNAc(a1-3)]Gal(b1-3)GlcNAc
Outline: as §1

[11] = biological target: Fuc(a1-2)[GalNAc(a1-3)]Gal(b1-3)GlcNAc(b1-2)Man(a1-3)[Fuc(a1-2)[GalNAc(a1-3)]Gal(b1-3)GlcNAc(b1-2)Man(a1-6)]Man(b1-4)GlcNAc(b1-4)GlcNAc
Outline: as §1

[12] = biological target: Fuc(a1-2)[GalNAc(a1-3)]Gal(b1-4)Glc
Outline: as §1

[13] = biological target: Fuc(a1-2)[GalNAc(a1-3)]Gal(b1-4)GlcNAc
Outline: as §1

[14] = biological target: Fuc(a1-2)[GalNAc(a1-3)]Gal(b1-4)GlcNAc(b1-2)Man(a1-3)[Fuc(a1-2)[GalNAc(a1-3)]Gal(b1-4)GlcNAc(b1-2)Man(a1-6)]Man(b1-4)GlcNAc(b1-4)GlcNAc
Outline: as §1

[15] = biological target: Fuc(a1-2)[GalNAc(a1-3)]Gal(b1-4)GlcNAc(b1-3)Gal(b1-4)GlcNAc
Outline: as §1

[16] = biological target: Fuc(a1-2)[GalNAc(a1-3)]Gal(b1-4)GlcNAc(b1-3)Gal(b1-4)GlcNAc(b1-3)Gal(b1-4)GlcNAc
Outline: as §1

[17] = biological target: Fuc(a1-2)[GalNAc(a1-3)]Gal(b1-4)[Fuc(a1-3)]GlcNAc
Outline: as §1

[18] = biological target: Fuc(a1-2)[GalNAc(a1-4)]Gal(b1-4)GlcNAc
Outline: as §1

[19] = biological target: Fuc(a1-2)[GalNAc(b1-3)]Gal
Outline: as §1

Fuc(a1-3)GlcNAc = biological target: Fuc(a1-3)GlcNAc
Outline: as §1

[20] = biological target: Fuc(a1-3)[Gal(b1-4)]Glc6S
Outline: as §1

[21] = biological target: Fuc(a1-3)[Gal(b1-4)]GlcNAc
Outline: as §1

[22] = biological target: Fuc(a1-3)[Gal(b1-4)]GlcNAc(b1-2)Man(a1-3)[Fuc(a1-3)[Gal(b1-4)]GlcNAc(b1-2)Man(a1-6)]Man(b1-4)GlcNAc(b1-4)GlcNAc
Outline: as §1

[23] = biological target: Fuc(a1-3)[Gal(b1-4)]GlcNAc(b1-3)Gal(b1-3)[Fuc(a1-4)]GlcNAc
Outline: as §1

[24] = biological target: Fuc(a1-3)[Gal(b1-4)]GlcNAc(b1-3)GalNAc
Outline: as §1

[25] = biological target: Fuc(a1-3)[Gal(b1-4)]GlcNAc(b1-4)Gal(b1-4)[Fuc(a1-3)]GlcNAc
Outline: as §1

[26] = biological target: Fuc(a1-3)[Gal(b1-4)]GlcNAc(b1-4)Gal(b1-4)[Fuc(a1-3)]GlcNAc(b1-4)Gal(b1-4)[Fuc(a1-3)]GlcNAc
Outline: as §1

[27] = biological target: Fuc(a1-3)[Gal(b1-4)]GlcNAc(b1-6)[Gal(b1-3)GlcNAc(b1-3)]Gal(b1-4)Glc
Outline: as §1

[28] = biological target: Fuc(a1-3)[Gal(b1-4)]GlcNAc6S
Outline: as §1

B1: Gal 3 (Homo sapiens), P17931 (protein)
chain: MADNFSLHDALSGSGNPNPQGWPGAWGNQPAGAGGYPGASYPGAYPGQAPPGAYPGQAPPGAYHGAPGAYPGAPAPGVYPGPPSGPGAYPSSGQPSAPGAYPATGPYGAPAGPLIVPYNLPLPGGVVPRMLITILGTVKPNANILDFQRGNDVAFHFNPRFNENNRRVIVCNTKLDNNWGREEIQSVFPFESGKPFKIQVLVEPDHFKVAVNDAHLLQYNHRVKKLNEISKLGISGDIDLTSASYTMI
- glycan array binding signal (z-score) (Fuc(a1-2)[Gal(a1-3)]Gal): -0.148
- glycan array binding signal (z-score) [1]: 1.19
- glycan array binding signal (z-score) [2]: 5.08
- glycan array binding signal (z-score) [3]: 0.759
- glycan array binding signal (z-score) [4]: -0.174
- glycan array binding signal (z-score) [5]: 10.8
- glycan array binding signal (z-score) [6]: -0.184
- glycan array binding signal (z-score) [7]: -0.099
- glycan array binding signal (z-score) [8]: -0.161
- glycan array binding signal (z-score) [9]: 0.052
- glycan array binding signal (z-score) [10]: -0.189
- glycan array binding signal (z-score) [11]: 3.39
- glycan array binding signal (z-score) [12]: 1.4
- glycan array binding signal (z-score) [13]: -0.004
- glycan array binding signal (z-score) [14]: 8.83
- glycan array binding signal (z-score) [15]: -0.13
- glycan array binding signal (z-score) [16]: -0.113
- glycan array binding signal (z-score) [17]: -0.143
- glycan array binding signal (z-score) [18]: -0.085
- glycan array binding signal (z-score) [19]: -0.014
- glycan array binding signal (z-score) (Fuc(a1-3)GlcNAc): -0.193
- glycan array binding signal (z-score) [20]: -0.192
- glycan array binding signal (z-score) [21]: -0.124
- glycan array binding signal (z-score) [22]: -0.092
- glycan array binding signal (z-score) [23]: -0.109
- glycan array binding signal (z-score) [24]: -0.119
- glycan array binding signal (z-score) [25]: -0.144
- glycan array binding signal (z-score) [26]: -0.194
- glycan array binding signal (z-score) [27]: -0.153
- glycan array binding signal (z-score) [28]: -0.183

From the supplement of paper PMC8728848
